Results from the supplement of paper PMC12217912.
This is one part of the list. Sequences were assembled here from the parent chain. Values near 0.05 are background.

B1: TEV protease; numbered along this chain (parent)
chain: MGESLFKGPRDYNPISSSICHLTNESDGHTTSLYGIGFGPFIITNKHLFRRNNGTLVVQSLHGVFKVKDTTTLQQHLVDGRDMIIIRMPKDFPPFPQKLKFREPQREERICLVTTNFQTKSMSSMVSDTSCTFPSGDGIFWKHWIQTKDGQCGSPLVSTRDGFIVGIHSASNFTNTNNYFTSVPKNFMELLTNQEAQQWVSGWRLNADSVLWGGHKVFMVKPEEPFQPVKEATQL

Variants of: B1
Test: raw area under fraction-flipped curve 0-4 h after induction (AUC4h, not background-subtracted), DNA-recorder readout of cleavage of the substrate (dimensionless); higher = more cleavage of the substrate by the protease variant
Conditions: temperature: 34 °C; time window: 0-4 h after rhamnose induction
Method: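 In vivo DNA recorder in E. coli TOP10(DE3) ΔrhaA at 34 °C. Each TEVp single-site mutant (parent TEVp 0) is paired with a single-site variant of the 7-mer TEVs (canonical ENLYFQ|S). The substrate sits between flexible linkers in a Bxb1-sfGFP-TEVs-SsrA fusion, so cleavage stabilises Bxb1 and speeds flipping of a recombination array, read by NGS. The value is the raw area under the fraction-flipped curve over 0-4 h after rhamnose induction (AUC4h), with ≥20 reads per time point. It is not background-subtracted; inactive controls average about 0.047.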
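Further: Bxb1 expression induced with 0.2% (w/v) L-rhamnose at OD600 near 0.5, cultures sampled hourly, flipped fraction per protease–substrate barcode pair counted by paired-end Illumina sequencing.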

Row | Variant | area with substrate ENLYFQA | area with substrate ENLYFQD | area with substrate ENLYFQI | area with substrate ENLYFQN | area with substrate ENLYFQP | area with substrate ENLYFQS | area with substrate ENLYFQT | area with substrate ENLYFQW | area with substrate ENLYFQC | area with substrate ENLYFQG | area with substrate ENLYFQH | area with substrate ENLYFQK | area with substrate ENLYFQL | area with substrate ENLYFQM | area with substrate ENLYFQR | area with substrate ENLYFQV | area with substrate ENLYFQY | area with substrate ENLYFQF | area with substrate ENLYFQQ
1 | E195Q | 0.074 | 0.0543 | 0.0605 | 0.0733 | 0.0564 | 0.0998 | 0.0637 | 0.0654 |  |  |  |  |  |  |  |  |  |  | 
2 | D161N | 0.0829 | 0.0504 | 0.0292 | 0.0993 |  | 0.0757 | 0.0051 | 0.07 | 0.0767 | 0.0772 | 0.123 | 0.0608 | 0.0526 | 0.0676 | 0.0566 | 0.0528 | 0.0577 |  | 
3 | I110A | 0.101 |  |  |  |  | 0.102 | 0.0652 |  | 0.125 |  |  |  |  |  |  |  |  |  | 
4 | I84M | 0.0781 |  |  | 0.0579 |  | 0.0856 | 0.0667 |  | 0.101 | 0.0833 |  | 0.0749 | 0.0416 | 0.072 |  |  | 0.0697 |  | 
5 | N193H | 0.0762 |  |  | 0.0602 |  | 0.0971 |  |  | 0.0902 | 0.081 | 0.058 | 0.0715 | 0.071 |  |  | 0.051 |  | 0.0729 | 0.067
6 | G162Q | 0.0842 | 0.0621 |  | 0.087 |  | 0.0995 | 0.0536 | 0.0619 | 0.0928 | 0.103 |  | 0.0687 | 0.0594 | 0.0828 | 0.0777 | 0.0545 | 0.0655 | 0.0615 | 0.077
7 | N193F | 0.0622 |  |  |  |  | 0.086 | 0.0322 |  |  |  | 0.0419 | 0.0373 | 0.0596 | 0.0813 |  |  |  | 0.0724 | 
8 | L56N | 0.0308 | 0.0461 | 0.0415 | 0.0445 |  | 0.0476 | 0.0395 | 0.045 | 0.045 | 0.0451 | 0.0366 | 0.0473 |  | 0.0446 | 0.0312 |  | 0.0498 | 0.0551 | 0.0391
9 | V165K | 0.0536 |  | 0.0539 | 0.057 | 0.0606 | 0.056 | 0.0586 |  | 0.0462 |  |  | 0.0437 | 0.0645 | 0.0571 | 0.0536 | 0.049 | 0.044 | 0.049 | 0.0563
10 | M125F | 0.123 |  | 0.0617 | 0.0677 |  | 0.105 | 0.0587 |  | 0.113 |  | 0.0809 | 0.0703 | 0.047 | 0.0849 |  |  | 0.0832 |  | 
11 | N206W | 0.0806 | 0.0605 | 0.0583 | 0.0752 |  | 0.0788 |  | 0.0583 | 0.071 | 0.0873 | 0.0436 | 0.068 | 0.0586 | 0.0699 | 0.0614 |  |  |  | 
12 | E107D | 0.0897 |  | 0.0679 | 0.0863 | 0.0687 | 0.102 |  | 0.0856 | 0.11 | 0.0794 | 0.0832 | 0.058 | 0.0531 | 0.0897 |  |  | 0.0712 | 0.0603 | 
13 | L235W | 0.121 |  |  |  |  | 0.0963 | 0.0579 |  | 0.142 | 0.111 |  |  |  |  | 0.0622 |  |  |  | 0.0544
14 | V67E | 0.0861 |  |  |  |  | 0.0822 |  |  |  |  |  | 0.0708 | 0.0447 | 0.0865 |  |  |  |  | 
15 | W199A | 0.0603 | 0.0617 | 0.0432 | 0.0667 |  | 0.0654 |  |  | 0.0723 | 0.0593 | 0.047 | 0.0757 |  | 0.0422 | 0.0581 | 0.0122 |  |  | 0.0509
